Source: paper PMC12223841, “Compounds Isolated from Paepalanthus spp. (Eriocaulaceae) and Their Evaluation in Antimicrobial, Cytotoxic, and Antiviral Assays” (ACS Omega, 2025)

System: ZIKV replicon (BHK-21-RepZIKV_IRES-Neo)
Details: 10 μM, 48 h

Compound: COc1c(O)cc2oc(-c3ccc(O)cc3)c(OC3OC(COC(=O)C=Cc4ccc(O)cc4)C(O)C(O)C3O)c(=O)c2c1O [Compound 4, 6-Methoxykaempferol-3-O-β-D-6″-(p-coumaroyl)-glycopyranoside]
- Rluc signal (replicon activity remaining): 100%
